Test results as given in PubChem BioAssay (NCATS).
Where “and” joins values, the source holds several entries; their conditions need not be identical. Equal values may be shown once. This list was built around the results that the source calls inconclusive (neither active nor inactive); the mix of calls is not that of the screen. Potencies beside an inconclusive call are fits to weak or partial responses and may not hold up. Calls of active or inactive are those of the source. Calls come from the whole dose curve; as a rule, active = well fitted inhibition curve with a large enough effect; inconclusive = small, poorly fitted or top-dose-only effect; inactive = flat fitted curve, though single readings scatter.

Experiment: Primary qHTS for inhibitors of nuclear receptor binding SET domain protein 2 (NSD2) in an isogenic RCH-ACV NSD2 p.E1099K mutant (9B) (AID 1645876); note: nearly all actives have a fitted effect of over 70% in size
Conditions: RCH-ACV (leukaemia line) NSD2 E1099K (9B) viability, CellTiter-Glo, 72 h; series mostly up to 44.9 µM
Potency is the fitted concentration of half-maximal effect; tags give direction and shape of the fitted curve.

SMILES	Potency
CC1(C)O[C@@H]2C[C@H]3[C@@H]4C[C@H](F)C5=CC(=O)CC[C@]5(C)[C@H]4[C@@H](O)C[C@]3(C)[C@]2(C(=O)CO)O1	inconclusive: 0.0168 µM [inhibitor, full curve]
Cc1ccc(S(=O)(=O)Nc2nc3ccccc3nc2Nc2ccc3nsnc3c2)cc1	inconclusive: 20.6 µM [inhibitor, partial curve]
CC(=O)OCC(=O)[C@@]12N=C(C)O[C@@H]1C[C@H]1[C@@H]3CCC4=CC(=O)C=C[C@]4(C)[C@H]3[C@@H](O)C[C@@]12C	inconclusive: 188 nM [inhibitor, full curve, poor fit] and inconclusive: 4.68 µM [inhibitor, partial curve, poor fit]
CC(C)C(=O)OCC(=O)[C@@]12O[C@H](C3CCCCC3)O[C@@H]1C[C@H]1[C@@H]3CCC4=CC(=O)C=C[C@]4(C)[C@H]3[C@@H](O)C[C@@]12C	inconclusive: 2.09 µM [inhibitor, partial curve]
CCOc1ccc(NC(C)=O)cc1	inactive
O=C1OC2(c3ccc(O)cc3Oc3cc(O)ccc32)c2ccccc21	inconclusive: 26.6 µM [inhibitor, single point]
OC[C@H]1O[C@@H](n2cnc3c(=S)nc[nH]c32)[C@H](O)[C@@H]1O	active: 0.473 µM
CC1=C(CC(=O)O)c2cc(F)ccc2C1=Cc1ccc(S(C)=O)cc1 (centres undefined)	inconclusive: 37.2 µM [inhibitor, partial curve, poor fit]
Nc1c(Br)cc(Br)cc1CNC1CCC(O)CC1 (centres undefined)	inconclusive: 11.5 µM [inhibitor, partial curve, poor fit]
Cc1c(N(C)CS(=O)(=O)O)c(=O)n(-c2ccccc2)n1C	inactive
CCC(=O)O[C@]1(C(=O)CCl)[C@@H](C)C[C@H]2[C@@H]3C[C@H](F)C4=CC(=O)C=C[C@]4(C)[C@@]3(F)[C@@H](O)C[C@@]21C	inconclusive: 16.3 µM [inhibitor, single point]
CCN(CC)CCCCNc1ncc2cc(-c3cc(OC)cc(OC)c3)c(NC(=O)NC(C)(C)C)nc2n1	active: 16.4 µM and active: 14.8 µM
CCc1cc2c(cc1N1CCC(N3CCOCC3)CC1)C(C)(C)c1[nH]c3cc(C#N)ccc3c1C2=O	inconclusive: 4.07 µM [inhibitor, full curve]
CCCC(=O)O[C@]1(C(=O)CO)CC[C@H]2[C@@H]3CCC4=CC(=O)CC[C@]4(C)[C@H]3[C@@H](O)C[C@@]21C	inconclusive: 0.75 µM [inhibitor, partial curve]
NC[C@H]1O[C@H](O[C@H]2[C@H](O[C@@H]3O[C@H](CO)[C@@H](O)[C@H]3O)C(O)[C@H](N)C[C@@H]2N)[C@H](N)[C@@H](O)[C@@H]1O (some centres undefined)	inconclusive: 6.11 µM [inhibitor, single point]
Cc1cc([C@@H](C)Nc2ccccc2C(=O)O)c2nc(N3CCOCC3)cc(=O)n2c1	active: 2.24 µM and active: 1.86 µM
C[C@]12CCC(=O)C=C1CC[C@H]1[C@@H]3CC[C@](O)(C(=O)CO)[C@@]3(C)C[C@H](O)[C@@]12F	inconclusive: 0.211 µM [inhibitor, partial curve, poor fit]
COc1cc(F)c(C(C)C)cc1-c1ccc(C(F)(F)F)cc1CN1C(=O)O[C@H](c2cc(C(F)(F)F)cc(C(F)(F)F)c2)[C@@H]1C	inconclusive: 0.105 µM [inhibitor, partial curve, poor fit]
CC(=O)N(O)CCCCCNC(=O)CCC(=O)N(O)CCCCCNC(=O)CCC(=O)N(O)CCCCCN	active: 7.5 µM and active: 5.25 µM
Cc1nc(NC(=O)N2CCC[C@@H]2C(N)=O)sc1-c1csc(C(C)(C)C)n1	active: 7.31 µM

SMILES	Potency
CN1[C@@H]2CC[C@H]1CC(OC(=O)C(O)c1ccccc1)C2 (some centres undefined)	inactive
Cc1cc(SCc2sc(-c3ccc(C(F)(F)F)cc3)nc2C)ccc1OCC(=O)O	inconclusive: 29 µM [inhibitor, single point]
COc1ccc(C=Cc2cc(OC)c(OC)c(OC)c2)cc1NC(=O)[C@H](N)CO	active: 0.118 µM
CS(=O)(=O)c1ccc(C(=O)Nc2ccc(Cl)c(-c3ccccn3)c2)c(Cl)c1	inconclusive: 23 µM [inhibitor, partial curve, poor fit]
O=C(O)CCC=CCC[C@@H]1[C@H](N2CCCCC2)[C@@H](O)C[C@@H]1OCc1ccc(-c2ccccc2)cc1	inactive
COc1cccc(OC)c1-c1cc(C(=O)NC2(C(=O)O)C3CC4CC(C3)CC2C4)nn1-c1ccnc2cc(Cl)ccc12 (centres undefined)	inconclusive: 11.8 µM [inhibitor, single point]
C[C@H](CCC(=O)O)[C@H]1CC[C@H]2[C@@H]3[C@H](O)C[C@@H]4C[C@H](O)CC[C@]4(C)[C@H]3CC[C@]12C	inactive
CC[N+](CC)(CCNC(=O)C(=O)NCC[N+](CC)(CC)Cc1ccccc1Cl)Cc1ccccc1Cl	inactive
CN(C(=O)CCCOc1ccc2[nH]c(=O)ccc2c1)C1CCCCC1	inconclusive: 33.5 µM [inhibitor, partial curve, poor fit]
C[C@@H]1C[C@H]2[C@@H]3CCC4=CC(=O)C=C[C@]4(C)[C@@]3(F)[C@@H](O)C[C@]2(C)[C@H]1C(=O)CO	inconclusive: 16.8 µM [inhibitor, partial curve, poor fit]
NC(=O)C(=O)N/N=C/c1ccc([N+](=O)[O-])o1	inconclusive: 33.5 µM [inhibitor, single point]
COc1ccc(Nc2cc(-c3cnc(N)nc3)nc(N3CCOCC3)n2)cn1	active: 0.525 µM
CCC[C@H](Nc1nc(-c2ccc(NC(=O)NCC)c(OC)c2)ncc1C)c1cccnc1	active: 0.0263 µM
CC[C@@H]1C(=O)N(C)c2cnc(Nc3ccc(C(=O)NC4CCN(C)CC4)cc3OC)nc2N1C1CCCC1	active: 0.0372 µM
CCc1ccc(C(=O)C(C)CN2CCCCC2)cc1 (centres undefined)	inconclusive: 26.6 µM [inhibitor, single point]
C[C@@H](N)C1CCC(C(=O)Nc2ccncc2)CC1 (some centres undefined)	inactive
O=C1NC(=O)C(c2cnc3ccccn23)=C1c1cn2c3c(cccc13)CN(C(=O)N1CCOCC1)CC2	active: 0.0148 µM
NC(=O)N1c2ccccc2C=Cc2ccccc21	inactive
C[C@@H]1COC(Nc2ccc3ncnc(Nc4ccc(OCc5nccs5)c(Cl)c4)c3c2)=N1	active: 13.2 µM
